The supplement of paper PMC8728848
This is one part of the list.

What was measured:
Assay in all cases: glycan array binding signal (z-score within array); higher = stronger binding
Settings in all cases: glycan notation: IUPAC condensed, linker removed
[1] = target: Gal(b1-4)GlcNAc(b1-6)GalNAc
Summary of the method: (§1)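 The binding signal is a Z-score computed within each array and averaged over linkers. Arrays of the same protein sequence at different concentrations or buffers were also averaged together. Data originate from 3228 arrays in the Consortium for Functional Glycomics database, kept only where the protein sequence was available.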

[2] = target: Gal(b1-4)GlcNAc(b1-6)[Gal(b1-3)]GalNAc
Summary of the method: as §1

[3] = target: Gal(b1-4)GlcNAc(b1-6)[Gal(b1-4)GlcNAc(b1-3)]GalNAc
Summary of the method: as §1

Gal(b1-4)GlcNAc6P = target: Gal(b1-4)GlcNAc6P
Summary of the method: as §1

Gal(b1-6)Gal = target: Gal(b1-6)Gal
Summary of the method: as §1

Gal3S(b1-3)GalNAc = target: Gal3S(b1-3)GalNAc
Summary of the method: as §1

Gal3S(b1-3)GlcNAc = target: Gal3S(b1-3)GlcNAc
Summary of the method: as §1

[4] = target: Gal3S(b1-3)[Fuc(a1-4)]GlcNAc
Summary of the method: as §1

Gal3S(b1-4)Glc = target: Gal3S(b1-4)Glc
Summary of the method: as §1

Gal3S(b1-4)Glc6S = target: Gal3S(b1-4)Glc6S
Summary of the method: as §1

Gal3S(b1-4)GlcNAc = target: Gal3S(b1-4)GlcNAc
Summary of the method: as §1

Gal3S(b1-4)GlcNAc6S = target: Gal3S(b1-4)GlcNAc6S
Summary of the method: as §1

[5] = target: Gal3S(b1-4)[Fuc(a1-3)]Glc6S
Summary of the method: as §1

[6] = target: Gal3S(b1-4)[Fuc(a1-3)]GlcNAc
Summary of the method: as §1

[7] = target: Gal3S(b1-4)[Fuc(a1-3)]GlcNAc6S
Summary of the method: as §1

Gal3S4S(b1-4)GlcNAc = target: Gal3S4S(b1-4)GlcNAc
Summary of the method: as §1

Gal3S6S(b1-4)GlcNAc = target: Gal3S6S(b1-4)GlcNAc
Summary of the method: as §1

Gal3S6S(b1-4)GlcNAc6S = target: Gal3S6S(b1-4)GlcNAc6S
Summary of the method: as §1

Gal4S(b1-4)GlcNAc = target: Gal4S(b1-4)GlcNAc
Summary of the method: as §1

Gal4S6S(b1-4)GlcNAc = target: Gal4S6S(b1-4)GlcNAc
Summary of the method: as §1

Gal6P(b1-4)GlcNAc = target: Gal6P(b1-4)GlcNAc
Summary of the method: as §1

Gal6S(b1-3)GlcNAc = target: Gal6S(b1-3)GlcNAc
Summary of the method: as §1

Gal6S(b1-3)GlcNAc6S = target: Gal6S(b1-3)GlcNAc6S
Summary of the method: as §1

Gal6S(b1-4)Glc = target: Gal6S(b1-4)Glc
Summary of the method: as §1

Gal6S(b1-4)Glc6S = target: Gal6S(b1-4)Glc6S
Summary of the method: as §1

Gal6S(b1-4)GlcNAc = target: Gal6S(b1-4)GlcNAc
Summary of the method: as §1

Gal6S(b1-4)GlcNAc6S = target: Gal6S(b1-4)GlcNAc6S
Summary of the method: as §1

GalNAc(a1-3)Gal = target: GalNAc(a1-3)Gal
Summary of the method: as §1

GalNAc(a1-3)GalNAc = target: GalNAc(a1-3)GalNAc
Summary of the method: as §1

[8] = target: GalNAc(a1-3)GalNAc(b1-3)Gal(a1-4)Gal(b1-4)Glc
Summary of the method: as §1

[9] = target: GalNAc(a1-3)GalNAc(b1-3)Gal(a1-4)Gal(b1-4)GlcNAc
Summary of the method: as §1

GalNAc(b1-3)Gal = target: GalNAc(b1-3)Gal
Summary of the method: as §1

[10] = target: GalNAc(b1-3)Gal(a1-4)Gal(b1-4)GlcNAc
Summary of the method: as §1

[11] = target: GalNAc(b1-3)Gal(a1-4)Gal(b1-4)GlcNAc(b1-3)Gal(b1-4)Glc
Summary of the method: as §1

[12] = target: GalNAc(b1-3)Gal(a1-6)Gal(b1-4)Glc
Summary of the method: as §1

GalNAc(b1-3)GalNAc = target: GalNAc(b1-3)GalNAc
Summary of the method: as §1

GalNAc(b1-3)GlcNAc = target: GalNAc(b1-3)GlcNAc
Summary of the method: as §1

GalNAc(b1-4)Gal(b1-4)Glc = target: GalNAc(b1-4)Gal(b1-4)Glc
Summary of the method: as §1

GalNAc(b1-4)GlcNAc = target: GalNAc(b1-4)GlcNAc
Summary of the method: as §1

[13] = target: GalNAc(b1-4)GlcNAc(b1-2)Man
Summary of the method: as §1

[14] = target: GalNAc(b1-4)GlcNAc(b1-2)Man(a1-3)[GalNAc(b1-4)GlcNAc(b1-2)Man(a1-6)]Man(b1-4)GlcNAc(b1-4)GlcNAc
Summary of the method: as §1

[15] = target: GalNAc(b1-4)GlcNAc(b1-3)GalNAc(b1-4)GlcNAc
Summary of the method: as §1

GalNAc(b1-4)GlcNAc6S = target: GalNAc(b1-4)GlcNAc6S
Summary of the method: as §1

GalNAc(b1-6)GalNAc = target: GalNAc(b1-6)GalNAc
Summary of the method: as §1

GalNAc3S(b1-4)GlcNAc = target: GalNAc3S(b1-4)GlcNAc
Summary of the method: as §1

B1: CSA (Cytisus scoparius), P29257 (protein)
chain: SEELSFSFTKFKTDQKNLILQRDALITPTGKLQLTTVENGKPAAYSLGRALYSTPIHIWDKSTGDEASFATFFSFVISDAPNPSTAATDGLAFFLAPADTQPQSAGGYLGLFEKDSSYNSSNQIVAVEFDTYYNSAWDPQTNPHIGIDVNTIKSKKVSSWGFKNGNVATVLITYQPSSKSLVASLVYPSGQTSDKTSYIISANVDLKATVPEWVRIGFSATTGQTDNYIETHDILSWSFKSKLPATKN
[1]
  glycan array binding signal (z-score): -0.194
[2]
  glycan array binding signal (z-score): -0.16
[3]
  glycan array binding signal (z-score): -0.144
Gal(b1-4)GlcNAc6P
  glycan array binding signal (z-score): -0.196
Gal(b1-6)Gal
  glycan array binding signal (z-score): -0.186
Gal3S(b1-3)GalNAc
  glycan array binding signal (z-score): -0.106
Gal3S(b1-3)GlcNAc
  glycan array binding signal (z-score): -0.188
[4]
  glycan array binding signal (z-score): -0.2
Gal3S(b1-4)Glc
  glycan array binding signal (z-score): -0.157
Gal3S(b1-4)Glc6S
  glycan array binding signal (z-score): -0.166
Gal3S(b1-4)GlcNAc
  glycan array binding signal (z-score): -0.129
Gal3S(b1-4)GlcNAc6S
  glycan array binding signal (z-score): -0.149
[5]
  glycan array binding signal (z-score): -0.102
[6]
  glycan array binding signal (z-score): -0.211
[7]
  glycan array binding signal (z-score): -0.184
Gal3S4S(b1-4)GlcNAc
  glycan array binding signal (z-score): -0.125
Gal3S6S(b1-4)GlcNAc
  glycan array binding signal (z-score): -0.186
Gal3S6S(b1-4)GlcNAc6S
  glycan array binding signal (z-score): -0.215
Gal4S(b1-4)GlcNAc
  glycan array binding signal (z-score): -0.179
Gal4S6S(b1-4)GlcNAc
  glycan array binding signal (z-score): -0.156
Gal6P(b1-4)GlcNAc
  glycan array binding signal (z-score): -0.289
Gal6S(b1-3)GlcNAc
  glycan array binding signal (z-score): -0.246
Gal6S(b1-3)GlcNAc6S
  glycan array binding signal (z-score): -0.233
Gal6S(b1-4)Glc
  glycan array binding signal (z-score): -0.15
Gal6S(b1-4)Glc6S
  glycan array binding signal (z-score): -0.199
Gal6S(b1-4)GlcNAc
  glycan array binding signal (z-score): -0.203
Gal6S(b1-4)GlcNAc6S
  glycan array binding signal (z-score): -0.149
GalNAc(a1-3)Gal
  glycan array binding signal (z-score): 3.51
GalNAc(a1-3)GalNAc
  glycan array binding signal (z-score): -0.083
[8]
  glycan array binding signal (z-score): -0.242
[9]
  glycan array binding signal (z-score): -0.188
GalNAc(b1-3)Gal
  glycan array binding signal (z-score): 2.98
[10]
  glycan array binding signal (z-score): 3.35
[11]
  glycan array binding signal (z-score): 2.76
[12]
  glycan array binding signal (z-score): 4.13
GalNAc(b1-3)GalNAc
  glycan array binding signal (z-score): -0.132
GalNAc(b1-3)GlcNAc
  glycan array binding signal (z-score): 1.83
GalNAc(b1-4)Gal(b1-4)Glc
  glycan array binding signal (z-score): 0.283
GalNAc(b1-4)GlcNAc
  glycan array binding signal (z-score): 6.99
[13]
  glycan array binding signal (z-score): 8.12
[14]
  glycan array binding signal (z-score): 3.25
[15]
  glycan array binding signal (z-score): 12.4
GalNAc(b1-4)GlcNAc6S
  glycan array binding signal (z-score): 9.73
GalNAc(b1-6)GalNAc
  glycan array binding signal (z-score): -0.198
GalNAc3S(b1-4)GlcNAc
  glycan array binding signal (z-score): -0.227
